Laboratory results: article PMC5503621
Results are given in words; binding and its absence hold for the method and conditions named. Binding seen in cells or lysates may run through a third protein. Some results given as binding are weak or reduced against the parent protein; the word gives no strength.

Amino acid sequences for entries named in this document (tags omitted). A change or cut given only in a name is not applied to a line headed by its entry. Chains listed by the source or under a name are the forms on record and can include a tag or linker. Residues count along the entry.
UniProt Q62432: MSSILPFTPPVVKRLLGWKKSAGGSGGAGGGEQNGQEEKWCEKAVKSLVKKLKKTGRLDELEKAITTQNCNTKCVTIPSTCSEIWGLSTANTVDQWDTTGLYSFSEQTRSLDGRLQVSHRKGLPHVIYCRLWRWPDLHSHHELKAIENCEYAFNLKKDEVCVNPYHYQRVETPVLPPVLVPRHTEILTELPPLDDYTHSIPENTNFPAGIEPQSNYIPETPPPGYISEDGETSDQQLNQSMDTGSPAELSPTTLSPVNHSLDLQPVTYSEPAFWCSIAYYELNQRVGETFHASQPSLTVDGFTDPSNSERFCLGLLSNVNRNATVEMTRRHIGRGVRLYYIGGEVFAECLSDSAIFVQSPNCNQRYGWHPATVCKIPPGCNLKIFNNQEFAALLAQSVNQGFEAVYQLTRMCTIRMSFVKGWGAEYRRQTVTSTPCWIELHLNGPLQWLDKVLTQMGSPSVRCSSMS
UniProt Q8BUN5: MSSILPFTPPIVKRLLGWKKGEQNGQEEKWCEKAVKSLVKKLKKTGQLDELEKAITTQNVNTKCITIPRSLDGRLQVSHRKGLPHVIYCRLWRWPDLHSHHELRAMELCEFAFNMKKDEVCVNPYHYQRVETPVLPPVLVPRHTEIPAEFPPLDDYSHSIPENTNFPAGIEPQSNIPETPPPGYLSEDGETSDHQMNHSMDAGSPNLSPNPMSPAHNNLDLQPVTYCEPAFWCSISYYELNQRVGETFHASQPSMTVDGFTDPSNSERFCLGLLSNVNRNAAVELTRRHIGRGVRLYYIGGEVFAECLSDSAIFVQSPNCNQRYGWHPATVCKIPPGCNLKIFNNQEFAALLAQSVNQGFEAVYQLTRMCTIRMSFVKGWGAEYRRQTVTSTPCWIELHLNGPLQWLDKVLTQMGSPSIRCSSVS
UniProt P97471: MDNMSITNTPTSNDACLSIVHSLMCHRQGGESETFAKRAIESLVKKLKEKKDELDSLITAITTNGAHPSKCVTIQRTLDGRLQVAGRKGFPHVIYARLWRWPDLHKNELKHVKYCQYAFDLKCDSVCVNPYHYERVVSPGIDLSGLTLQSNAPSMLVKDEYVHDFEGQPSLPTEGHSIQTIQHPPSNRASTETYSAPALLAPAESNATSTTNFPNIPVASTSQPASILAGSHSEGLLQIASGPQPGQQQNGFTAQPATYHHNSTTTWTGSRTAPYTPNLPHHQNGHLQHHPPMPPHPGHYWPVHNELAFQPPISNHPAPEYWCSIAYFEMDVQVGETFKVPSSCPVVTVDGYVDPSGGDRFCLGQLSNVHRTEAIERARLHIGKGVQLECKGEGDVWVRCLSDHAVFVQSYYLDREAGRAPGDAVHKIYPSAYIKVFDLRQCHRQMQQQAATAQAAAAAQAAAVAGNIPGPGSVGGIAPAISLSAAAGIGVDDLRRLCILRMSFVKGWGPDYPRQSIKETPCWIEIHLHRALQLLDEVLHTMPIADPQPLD
GST-tagged Smad4 truncate with the MH1 domain: residues 18-142 of P97471

Experiments:
GST-tagged Smad2 = GST-tagged Smad2 (UniProt Q62432); test: pull-down; in vitro GST pull-down: GST-tagged Smads or Smad4 truncates on glutathione-Sepharose beads, His-tagged OVOL2 as prey; 4°C, 3 h; the methods say that nuclear extracts were incubated with the resin-bound proteins; only the target purified
GST-tagged Smad3 = GST-tagged Smad3 (UniProt Q8BUN5); test: as above
[1] = target: GST-tagged Smad4 truncate with the MH1 domain (UniProt P97471); test: as above
GST-tagged Smad4 = GST-tagged Smad4 (UniProt P97471); test: as above
GST-tagged OVOL2 = GST-tagged OVOL2 (UniProt Q8CIV7); test: pull-down; in vitro GST pull-down: GST-tagged OVOL2 or OVOL2 truncates on glutathione-Sepharose beads, His-tagged Smad4 as prey; 4°C, 3 h; the methods say that nuclear extracts were incubated with the resin-bound proteins; only the target purified
[2] = target: FLAG-tagged Smad4 (NMuMG) (UniProt P97471); test: co-IP; NMuMG cells infected with lentivirus (vector control or OVOL2), transfected with FLAG-tagged Smad4, with or without TGF-β1 for 48 h; anti-FLAG immunoprecipitation, immunoblot for Smad2/3 and OVOL2
[3] = target: FLAG-tagged Smad4 (HEK293T) (UniProt P97471); test: co-IP; HEK293T cells transfected with FLAG-tagged Smad2/Smad3/Smad4 and untagged OVOL2; lysates immunoprecipitated with anti-FLAG antibody, immunoblot for OVOL2; lysis buffer 20 mM Tris-HCl pH 7.5, 150 mM NaCl, 1% Triton X-100
[4] = target: Ovol2 (endogenous, 4T1) (mouse (endogenous in 4T1)) (UniProt Q8CIV7); test: co-IP; endogenous proteins; nuclear extracts of non-transfected 4T1 cells; immunoprecipitation of OVOL2, blot for Smad4

His-tagged OVOL2 (from UniProt Q8CIV7 1-274)
binding (GST-tagged Smad2): no binding
binding (GST-tagged Smad3): no binding
binding [1]: binds
binding (GST-tagged Smad4): binds

His-tagged Smad4 (from UniProt P97471 1-551)
binding (GST-tagged OVOL2): binds

OVOL2 (lentiviral overexpression, NMuMG) (from UniProt Q8CIV7 1-274)
binding [2]: binds

OVOL2 (untagged) (from UniProt Q8CIV7 1-274)
binding [3]: binds

Smad2 (endogenous, NMuMG) (from UniProt Q62432 1-467)
binding [2]: binds

Smad3 (endogenous, NMuMG) (from UniProt Q8BUN5 1-425)
binding [2]: binds

Smad4 (endogenous, 4T1) (from UniProt P97471 1-551)
binding [4]: binds
